According to PMC5540273 (PLoS ONE, 2017):
For some of these results: Shown are results outside the selection of strong results, which stands elsewhere. This is a selection; strong and weak results do not stand in their true shares.

What was measured:
Details in all cases: concentration: 1 μM,replicates: in singlicate; n = 1
ITK = test system: ITK
[1] = test system: JAK1(JH1domain-catalytic)
[2] = test system: JAK1(JH2domain-pseudokinase)
[3] = test system: JAK2(JH1domain-catalytic)
[4] = test system: JAK3(JH1domain-catalytic)
JNK1 = test system: T1, JNK1
T1 construct: gene MAPK8

JNK2 = test system: T2, JNK2
T2 construct: gene MAPK9

JNK3 = test system: T3, JNK3
T3 construct: gene MAPK10

KIT-autoinhibited = test system: KIT-autoinhibited
KIT = test system: KIT
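Further: KINOMEscan kinase panel screen.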

Compound	%Inh (ITK) [%]	%Inh [1] [%]	%Inh [2] [%]	%Inh [3] [%]	%Inh [4] [%]	%Inh (JNK1) [%]	%Inh (JNK2) [%]	%Inh (JNK3) [%]	%Inh (KIT-autoinhibited) [%]	%Inh (KIT) [%]
COc1cccc(C2=C(Nc3ccc(SC)cc3)C(=O)NC2=O)c1 [SB-331032]	4	0	0	47	66	25	32	10	13	0
O=C1NC(=O)C(c2ccc(Cl)cc2)=C1Nc1ccc(O)c(Cl)c1 [SB-405367]	4	0	63	25	5	37	4	16	12	3
O=C1NC(=O)C(c2ccccc2)=C1Nc1ccc(Cl)c(C(=O)O)c1 [SB-390532]	3	6	0	7	29	21	19	4	0	0
O=C1NC(=O)C(c2ccc(Cl)cc2)=C1Nc1cccc(O)c1 [SB-333613]	0	0	0	54	58	24	24	2	16	0
O=C(O)c1ccc(-c2nc(-c3ccc(F)cc3)c(-c3ccncc3)[nH]2)cc1 [SB-202620]	12	15	38	22	0	93.6	98.8	99.3	1	19
CSc1ccc(NC2=C(c3cccc(Cl)c3)C(=O)NC2=O)cc1 [SB-341528]	0	0	48	0	52	25	10	6	17	0
CS(=O)(=O)c1ccccc1-c1nc(-c2ccc(F)cc2)c(-c2ccncc2)[nH]1 [SB-213663]	0	2	0	5	0	93.2	99.3	99.3	5	0
Cc1ccc(C)c(Oc2nccc(-c3c(-c4ccc(F)cc4)ncn3C3CCNCC3)n2)c1.O=C(O)C(F)(F)F.O=C(O)C(F)(F)F.O=C(O)C(F)(F)F [SB-284852]	15	0	3	1	0	2	21	0	0	1
O=C1NC(=O)c2c1c(-c1ccccc1)cc1[nH]c3ccc(O)cc3c21	0	4	57	82	99.2	23	16	9	26	43
O=C1NC(=O)C(c2ccccc2Cl)=C1Nc1cccc(C(=O)O)c1 [SB-390526]	8	0	0	0	75	0	5	0	0	17
O=C1NC(=O)C(c2ccccc2)=C1Nc1cc(Cl)c(O)c(Cl)c1 [SB-390530]	15	0	0	1	86	49	32	37	5	2
O=C1NC(=O)C(c2ccccc2Cl)=C1Nc1ccccc1 [SB-376715]	0	0	0	0	69	7	30	37	0	0
COc1ccc(C2=C(Nc3cccc(Cl)c3)C(=O)NC2=O)cc1 [SB-326892]	0	100	8	0	20	0	2	0	6	10
O=C1NC(=O)C(c2ccc(Cl)cc2)=C1Nc1ccccc1 [SB-317661]	0	0	50	46	11	0	0	0	20	0
Cc1cc(C)cc(Oc2nccc(-c3c(-c4ccc(F)cc4)ncn3C3CCNCC3)n2)c1.O=C(O)C(F)(F)F.O=C(O)C(F)(F)F.O=C(O)C(F)(F)F [SB-284851]	4	86	0	0	29	20	0	0	0	0
O=C1NC(=O)C(c2ccc(Cl)cc2)=C1Nc1cccc(C(=O)O)c1 [SB-360737]	13	5	0	13	0	24	12	5	0	0
